# Publication PMC5836133
# The list shows a part of the results. At the low end of the ranking the order means little.
# Tested on: T1, GST-NbGlk1(82-244)
# T1 sequence: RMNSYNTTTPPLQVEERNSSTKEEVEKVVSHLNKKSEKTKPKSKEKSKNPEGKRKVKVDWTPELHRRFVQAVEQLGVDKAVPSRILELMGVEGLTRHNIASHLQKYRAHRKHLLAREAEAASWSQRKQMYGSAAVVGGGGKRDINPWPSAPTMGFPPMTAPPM
# Experiment: protein-binding microarray;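 also: rank-based score ranging −0.5 to +0.5 with E above 0.45 taken as significant binding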
# Details: NbGlk1 is a Golden2-like transcription factor of Nicotiana benthamiana; high values mean tight binding; most listed sequences are background and not binding sites; double strand, one strand shown
row,Sequence,binding signal [E-score]
1,CAACCGCC,-0.174
2,AGCCTGCC,-0.303
3,AAACACCC,-0.191
4,AATCAACT,0.274
5,ACGTCTAT,-0.0157
6,AGGGGCGG,-0.34
7,ACCCGTGC,-0.179
8,AAGCATGC,-0.119
9,AGCCACGC,-0.24
10,ACTGCAAG,-0.0497
11,AACTGCCC,-0.156
12,AGCACTGC,-0.106
13,AATCGAGT,0.167
14,ACAACTCT,-0.0583
15,ACTCTCGA,-0.15
16,AACGCGGG,-0.168
17,AGGCCTCC,-0.184
18,CAGATACA,0.19
19,AGTCAGGG,-0.253
20,AACGGCCG,-0.0619
21,AGTACAAA,0.141
22,ACAAGGGT,-0.145

row,Sequence,binding signal [E-score]
1,ACAGCGAA,-0.00907
2,AAATGCTG,-0.0373
3,ACGGGTTA,-0.0663
4,AGAACAGA,0.14
5,ATTAGGAG,-0.0201
6,AAGTTGGC,-0.118
7,CAAACGCC,-0.22
8,AGTCAAGA,-0.00495
9,AGCGCCCT,-0.285
10,ATAGTCTG,0.0529
11,ATCGTGCG,0.234
12,AGCTACTG,-0.136
13,AACATGCG,-0.0932
14,AGATGCGG,0.0273
15,AGCGAGGA,-0.0427
16,ATGACCTG,-0.169
17,ATCGGAGA,0.249
18,CACATTGA,-0.0147
19,ACCAGAAG,-0.253
20,ATAATTGA,0.0587
21,ATAATAAA,0.187
22,CACAATCA,0.27

row,Sequence,binding signal [E-score]
1,ATCATCCA,0.171
2,ACGGCAGG,-0.243
3,AGAGATTA,0.298
4,AGATCCCC,0.378
5,CAAGTCTG,-0.238
6,AGAAGGCT,-0.294
7,AAAAAATT,0.204
8,AATTACCA,0.152
9,ACGATCCC,0.156
10,ACTTACAC,0.0281
11,ACGCAGCG,-0.096
12,AGAAATCT,0.465
13,ACTTCAGA,0.0253
14,ATTACACC,0.334
15,AACCCGTA,0.00606
16,CAACAACC,-0.17
17,AGGCCACT,-0.264
18,CAAAATGC,-0.0674
19,ATCACGAT,0.29
20,ACGCCGCA,-0.208
21,ATAGGAAC,-0.08
22,AACGGACG,-0.177

row,Sequence,binding signal [E-score]
1,AGAACGGG,-0.0636
2,ATAGTGAA,0.0599
3,ACACGGGA,0.0384
4,ACTATCCA,0.145
5,CAGCCAGG,-0.174
6,ATCCGTAC,0.226
7,AATGTCGT,-0.0573
8,AACTTACG,0.0976
9,ACTATTCG,0.0591
10,AGGATCGC,0.357
11,AAACGCCT,-0.113
12,AAGTGACT,-0.192
13,ATGGCAAA,0.0695
14,ATCGAGTC,-0.0798
15,ACCGGAAC,-0.175
16,ACAGGTGC,-0.201
17,CACTAGTC,-0.128
18,CAGATTGA,0.0826
19,AACCTGAT,0.133
20,ACTTCTCT,0.0596
21,ATATGTAC,0.12
22,ACTTATTC,-0.0512

row,Sequence,binding signal [E-score]
1,AAAATCCA,0.454
2,ATACGCCC,0.0464
3,ACAGAGCA,-0.112
4,ACTAACAC,-0.192
5,AGCTAACT,-0.214
6,ACTGGCTA,-0.211
7,AACTCTGA,0.0132
8,AGCGAATG,0.0432
9,ACCCTCGA,-0.248
10,ATCTTAGC,0.246
11,CACTTCTA,-0.167
12,CACGCGAG,-0.0324
13,AAGTAACA,-0.0919
14,ACAGCTGG,-0.158
15,AATGTAAA,0.146
16,CACGCGCG,0.0351
17,AACCCGTG,-0.133
18,AACCTGGG,-0.233
19,ACACGTTC,-0.133
20,ATCATGCG,0.000838
21,AATGTCGC,-0.0312
